The results in this text go back to the RNAGym collection of RNA variant scans (doi:10.1093/nar/gkz1192).

The source gives no read counts; variants with many changes may rest on few reads.

To fix the notation:
B1: CPEB3 Ribozyme (parent)
chain: UAACAGGGGGCCACAGCAGAAGCGUUCACGUCGCAGCCCCUGUCAGAUUCUGGUGAAUCUGCGAAUUCUGCUGUAUAUCUC

The variants in this series derive from B1. The series can be described thus: self-cleavage, relative activity (ratio to wild type); higher = more cleavage; in vitro, sequencing. In outline: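 After error-prone PCR and barcoding, CPEB3 ribozyme mutant libraries were transcribed with T7 RNA polymerase at 37°C for 5 hours, then given 15 min with DNase I before an EDTA stop, and they cleaved during both steps. Reverse transcription with template switching preceded Illumina sequencing. Relative activity divides a variant's cleaved/total read fraction by the unmutated ribozyme's. At least 5 reads were required per variant, and three batches were averaged.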
UAACAGGGGGCCACAGCAGAGGCGCUCACGCCGCAGCCCCUGUCAGAUUCUGGUGAAUCUGCGAAUUCUGCUGUGUACCUC [A21G U25C U31C A75G U78C]: the self-cleavage is 0.05.

With UAACAGGGGGCCACAGCAGAGGCGUACACGUCGCAGCCCCCGUCAGAUUCUGGUGAAUCUGCGAAUUCUGCUGUAUAUCUC [A21G U26A U41C], the self-cleavage came out at 0.22.

With UAACAGGGGGCCACAGCAGAGGCGGUCACGACGCAGCCCCAGUCAGAUUCUGGUGAAUCUGCGAGUUCUGCUGUAUAUCCC [A21G U25G U31A U41A A65G U80C], the self-cleavage was 0.07.

As for UAACAGGGGGCCACAGCAGAGGCGGUCACGCCGCAGCCCCUGUCAGAUUCUGGUGAAUCUGCGAAUUCUGCUGUAAAUCUC [A21G U25G U31C U76A], the self-cleavage amounted to 0.07.

Turning to UAACAGGGGGCCACAGCAGAGGCGCUCACGUCGCAGCCCCUGCCCGAUUCUGGUGAAUCUGCGAAUUCUGCUGUAUAUGUC [A21G U25C U43C A45C C79G], the self-cleavage was determined as 0.02.

Turning to UAACAGGGGGCCACAGCAGAGGCGUACGCGUCGCAGCCCCUGUCAAAUUCAGGUGAAUCUGCGAAUUCUGCUGUAUAUCUC [A21G U26A A28G G46A U51A], the self-cleavage was found to be 0.19.

Consider UAACAGGGGGCCACAGCAGAGGCGUCUACGUCGCAGCCCCUGUCAGAUUCAGGUGAAUCUGCGAAUUCUGCUGUAUAUCUC [A21G U26C C27U U51A], for which the self-cleavage is 0.17.

With UAACAGGGGGCCACAGCAGAGGCGUCCACGUCGCAGCCCCUGUCAGAUUCAGGUGGAUCUGCGAAUUCAGCUGUAUAUCUC [A21G U26C U51A A56G U69A], the self-cleavage came to 0.08.

Take UAACAGGGGGCCACAGCAGAGGCGUACGCGUCGCAGCCCCUGUCAGAUUCUGGUGAAUCUGCGAAUUCUGCUGUAUAUCUC [A21G U26A A28G]: the self-cleavage came out at 0.33.

For UAACAGGGGGCCACAGCAGAGGCGCUCACGUCGCAGCCCCUGUCAGAUUCUGGUGAAUCUGCGAAUUCUGCUGCAUAUCUC [A21G U25C U74C], the self-cleavage was determined as 0.3.

For the variant UAACAGGGGGCCACAGCAGAGGCGUACACGUCGCUGCCCCUGUCAGAUUCUGGUGAAUCUGCGAAUUCUGCUGUGUAUCAC [A21G U26A A35U A75G U80A], the self-cleavage was determined as 0.1.

With UAACAGGGGGCCACAGCAGAGGCGUCCACGUAGCAGCCCCUGUCAGAUUCUGGUGAAUCUGCGAAUUCUGCUGUAUAUCUC [A21G U26C C32A], the self-cleavage worked out at 0.52.

Regarding UAACAGGGGGCCACAGCAGAGGCGUACACUUCGCAGCCCCUGUCAGAUUCUGGCGAGUCUGCGAACACUGCUGUAUAUCUC [A21G U26A G30U U54C A57G U66C U67A], the self-cleavage was 0.1.

For UAACAGGGGGCCACAGCAGAGGCGUCCACGUCGCAGCCCCUGUCUGUUUCUGGUGAAUCUGCGAAUUCUGCUGUAUAUCUC [A21G U26C A45U A47U], the self-cleavage came out at 0.11.

Take UAACAGGGGGCCACAGCAGAGGCGUACACGUCGCAGCCCCUGUCAGAUUCUGGUGAAUCUGCGAAUUCUGCUGUAUAUCCC [A21G U26A U80C]: the self-cleavage was 0.58.

Take UAACAGGGGGCCACAGCAGAGGCGUACACGUCGCAGCCCCUGUCAGAUUCUGGUGAAUCUGCGAAUCCUGCUGUAUAUCUC [A21G U26A U67C]: the self-cleavage was found to be 0.08.

With UAACAGGGGGCCACAGCAGAGGCGUCCACGUCGCAGCCCCUGCCGGAUUCUGGUGAAUCUGCGAAUUCUGCUGUAUAUCUC [A21G U26C U43C A45G], the self-cleavage was determined as 0.21.

In the case of UAACAGGGGGCCACAGCAGAGGCGUCCACGUCGCAGCCCCUGUCAGAUUCUGGUGUAUCUGCGAAUUCUGCAGUAUAUCUC [A21G U26C A56U U72A], the self-cleavage worked out at 0.05.

Turning to UAACAGGGGGCCACAGCAGAGGCGCUCACGUCGCAGCCCCUGUCAGAUUCUGCUGAGUCUGCGAAUUCGGCCGUAUAUCUC [A21G U25C G53C A57G U69G U72C], the self-cleavage worked out at 0.03.

Consider UAACAGGGGGCCACAGCAGAGGCGUCCACGUCGCAGCCCCUGUCAGAUUCUGGUGAAUCUGCGAAUCCUGCUGUAUAUCUC [A21G U26C U67C], for which the self-cleavage came to 0.09.

For UAACAGGGGGCCACAGCAGAGGCGUCCACGUCGCAGCCCCUGUCAGAUUCUGGUGGAUCUGCGAAUUCAGCAGUAUAUCUC [A21G U26C A56G U69A U72A], the self-cleavage is 0.2.

In the case of UAACAGGGGGCCACAGCAGAGGCGUCCACGCCGCAGCCCCUGUCAGAUUCUGGUGAAUCUGCGAAUUCCGCUGUAUAUCUC [A21G U26C U31C U69C], the self-cleavage was 0.17.

For the variant UAACAGGGGGCCACAGCAGAGGCGUCCACGCCGCAGCCCCUGUCAGAUUCUGGUGAAUCUGCGAAUUCUGCGGUAUAUCUC [A21G U26C U31C U72G], the self-cleavage was 0.19.

UAACAGGGGGCCACAGCAGAGGCGUACACGUCGCAACCCCUGUCAGAUUCUGGUGAAUCUGCGAAUUCUGCUGUAUAUCUC [A21G U26A G36A]: the self-cleavage is 0.16.

As for UAACAGGGGGCCACAGCAGAGGCGCUCACGUCGCAGACCCCGUCAGAUUCUGGUGAAUCUGCGAAUUAUGCUGUAUAUCUC [A21G U25C C37A U41C C68A], the self-cleavage turned out to be 0.35.

As to UAACAGGGGGCCACAGCAGAGGCGCUCACGUCGCAGCCCCUGUCAGAUCCUGGUGAAUCUGCGAAUUCUGCUGUAUAUCUC [A21G U25C U49C], the self-cleavage came out at 0.16.

Regarding UAACAGGGGGCCACAGCAGAGGCGUCCACGUCGCAGCCCCUGUCAGAUUCUGGUGAACCUGCGAAUUCUGCUGUAUAUCUC [A21G U26C U58C], the self-cleavage worked out at 0.25.

For the variant UAACAGGGGGCCACAGCAGAGGCGCUCACGUCACAGCCCCUGCCAGAUUCUGGCGAAUCUGCGAAUUCUGCUGUAUAUCUC [A21G U25C G33A U43C U54C], the self-cleavage stood at 0.07.

Regarding UAACAGGGGGCCACAGCAGAGGCGCUCACGCCGCAGCCCCUGUCAGAUUCAGGUGAAUCUGCGAAUUCUGCCGUAUAUCUC [A21G U25C U31C U51A U72C], the self-cleavage is 0.14.

UAACAGGGGGCCACAGCAGAGGCGUACACGUCGCAGCCCCUGUCAGACUCUGGUGAAUCUGCGAAUUCCGCUGUAUAUCUC [A21G U26A U48C U69C]: the self-cleavage turned out to be 0.26.

Regarding UAACAGGGGGCCACAGCAGAGGCGUCCACGUCGCUGCCCCUGUCAGAUUCCGGUGAAUCCGCGAAUUCUGCUGCAUAUCUC [A21G U26C A35U U51C U60C U74C], the self-cleavage stood at 0.07.

On to UAACAGGGGGCCACAGCAGAGGCGCACACGUCGCAGCCCCUGUCAGAUUCAGGUGAAUCUGCGAGUUCUGCUGUAUAUCAC [A21G U25C U26A U51A A65G U80A], for which the self-cleavage is 0.06.

Regarding UAACAGGGGGCCACAGCAGAGGCGUCCACGUCGCAGCCCCUGUCAGAUUCUGGUAAGUCUGCGAACUCUGCUGUAUAUCUC [A21G U26C G55A A57G U66C], the self-cleavage was 0.08.

Turning to UAACAGGGGGCCACAGCAGAGGCGCUCACGUCGCAGCCCCUGUCAGAUCCUGGUGAAUCUGCGAAUUCUGCUGUAUUUCUC [A21G U25C U49C A77U], the self-cleavage came to 0.05.
